Screen size: about 220,000 compounds; about 2,300 (1%) were called active. This list was built around the results that the source calls inconclusive (neither active nor inactive); the mix of calls is not that of the screen. Calls follow the shape of the dose curve; as a rule, active = well fitted inhibition curve with a large enough effect; inconclusive = small, poorly fitted or top-dose-only effect, or effect the other way; inactive = no such curve, though single readings can be large or run the other way. Potencies of inconclusive entries are left out as doubtful fits.
biological target: Neuropeptide S receptor (Homo sapiens) (UniProt Q6W5P4); test: qHTS Assay for Antagonists of the Neuropeptide S Receptor: cAMP Signal Transduction; conditions: CHO-NPSR cells, cAMP TR-FRET, antagonist mode; activity change, negative = inhibition: at 38.3 µM (top of the series) unless noted; also: nearly all actives have a fitted effect of over 50% in size
Chain of UniProt Q6W5P4 (Q6W5P4 whole entry, looked up): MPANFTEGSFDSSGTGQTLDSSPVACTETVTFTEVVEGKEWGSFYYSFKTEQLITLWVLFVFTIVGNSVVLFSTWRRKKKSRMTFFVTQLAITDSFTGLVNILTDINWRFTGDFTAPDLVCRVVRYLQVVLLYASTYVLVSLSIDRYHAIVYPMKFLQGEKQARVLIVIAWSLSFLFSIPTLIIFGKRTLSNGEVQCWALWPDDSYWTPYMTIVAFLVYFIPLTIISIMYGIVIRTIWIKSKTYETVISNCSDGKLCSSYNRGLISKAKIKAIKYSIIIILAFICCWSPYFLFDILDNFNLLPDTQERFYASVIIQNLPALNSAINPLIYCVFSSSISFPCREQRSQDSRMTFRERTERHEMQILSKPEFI
% is scaled to controls: 0 for no effect and ±100 for the full control effect; potency is read from the fitted curve at half-maximal effect; tags tell the direction and shape of the fitted curve.

Compound | Potency | activity change, negative = inhibition
CN(C)c1ccc(/C=C/c2ccc3c4ccccc4ccc3[n+]2-c2ccccc2)cc1 | active: 10 µM | 
COc1cc(/C=N/NC(=O)c2ccc(O)cc2)ccc1Oc1ccc([N+](=O)[O-])cn1 |  | inactive: -2.55%
CN1CCc2c(sc(/N=C/c3cccs3)c2C(N)=O)C1 | inconclusive [inhibitor, single point] | 
Cc1ccc2c(c1)[nH]c1c(N3CCN(Cc4ccccc4)CC3)ncnc12 | inconclusive [inhibitor, single point] | 
CN(c1cccc(NC(=O)CN(c2ccc(C34CC5CC(CC(C5)C3)C4)cc2)S(C)(=O)=O)c1)S(C)(=O)=O | inconclusive [inhibitor, single point] | 
COc1ccc(OC)c(C(=O)c2ccc(C(=O)c3cc(OC)ccc3OC)cc2)c1 | inconclusive [inhibitor, partial curve] | 
COc1ccc(/C=N/n2c(-c3cccs3)n[nH]c2=S)cc1 |  | inactive: -29% [at 46.1 µM]
CCn1c(=O)c(C(=O)NNS(=O)(=O)c2ccc(Br)cc2)c(O)c2ccccc21 |  | inactive: -8.86%
CN1CC(c2ccccc2)C2(SC(=S)N(Cc3ccco3)C2=O)C12C(=O)Nc1ccccc12 (stereo not given) | active: 10 µM | 
N#Cc1cc(Oc2cccc3cccnc23)c(-n2nnc3ccccc32)cc1C#N | inconclusive [inhibitor, single point] | 
CCn1c2ccccc2c2cc(C3C(C#N)=C(N)Oc4n[nH]c(COC)c43)ccc21 (stereo not given) | inconclusive [inhibitor, single point] | 
CC(C(=O)NC(C)(C)C)N1C(=O)c2cccc3cccc(c23)C1=O (stereo not given) |  | inactive: -8.09%
COc1ccccc1N1CCN(C(=O)c2nn(-c3ccccc3OC)c(=O)c3ccccc23)CC1 | inconclusive [inhibitor, partial curve] | 
Cc1cccc(CC2S/C(=N/N=C/c3ccco3)NC2=O)c1 (stereo not given) |  | inactive: 5.7%
CC(C)(C)c1ccc(N2C(=O)Cc3c2nc(N)c(C#N)c3N)cc1 | inconclusive [inhibitor, partial curve] | 
CCCN(C(=O)CCl)C1=CCCCC1 |  | inactive: 3.08%
CC(=O)Nc1ccc2c(c1)nc1n2CCSC1 |  | inactive: -10.5% [at 46.1 µM]
Cc1nn2c(NCc3ccccn3)c3c(nc2c1-c1ccccc1)CCC3 |  | inactive: -40.3%
O=C(Nc1cccnc1)c1scc2c1OCCO2 | inconclusive [inhibitor, single point] | 
Cc1csc(SCC(=O)Nc2ncc(Cl)c(C)c2Cl)n1 |  | inactive: -3.8% [at 46.1 µM]
Cc1nc(C)c(C(=O)N(c2ccc(C)c(C)c2)C(C(=O)NCc2ccco2)c2ccccc2)s1 (stereo not given) | inconclusive [inhibitor, full curve, poor fit] | 
O=C1c2ccccc2C(=O)C12OC2c1ccc(Cl)cc1Cl (stereo not given) | inconclusive [inhibitor, single point] | 
Cc1ccc(/C=C/c2ccc(=O)n(Cc3ccccc3Cl)n2)cc1 | inconclusive [inhibitor, single point] | 

Compound | Potency | activity change, negative = inhibition
CC(C)N(Cc1ccccc1)C(=S)Nc1ccccc1F |  | inactive: 29%
CCc1ccc2[nH]c(=O)c(CN(Cc3ccc4c(c3)OCO4)C(=O)c3ccco3)cc2c1 | inconclusive [inhibitor, partial curve] | 
O=S(=O)(c1ccc2ccccc2c1)N(CC(O)COCc1ccco1)c1ccccc1 (stereo not given) | inconclusive [inhibitor, partial curve, poor fit] | 
c1ccc(-c2nc(-c3ccco3)n3ccccc23)cc1 | inconclusive [inhibitor, single point] | 
Cc1cc(-c2n[nH]c(=S)n2/N=C/C(Br)=C/c2ccccc2)n[nH]1 | active: 3.98 µM | 
Cc1cc(C(=O)CN2C(=O)NC(C)(c3cccc(Br)c3)C2=O)c(C)n1Cc1ccco1 (stereo not given) | inconclusive [inhibitor, single point] | 
CC(=O)c1c(C(C)=O)c(C)n(-c2nc(-c3ccc(C)c(C)c3)c(C)s2)c1C | inconclusive [inhibitor, single point] | 
Fc1ccc(Cn2c(SCc3ccc(F)c(C(F)(F)F)c3)nnc2C(F)(F)F)cc1 | inconclusive [inhibitor, partial curve] | 
Cc1cc(N/N=C/c2ccc(N(C)C)cc2)nc(NCc2ccccc2)n1 | active: 10 µM | 
COc1ccc(OCCSc2nc3ccccc3c(=O)[nH]2)cc1 | inconclusive [inhibitor, single point] | 
O=C(Nc1nnc(-c2ccc(F)cc2)o1)c1cc(Cl)sc1Cl |  | inactive: 6.02%
COc1ccc(N2CCN(C(=O)CCC(=O)c3cc(C)sc3C)CC2)cc1 |  | inactive: -1.69%
Cc1ccc(-n2ncc3c(=O)n(-c4ccc(C)c(C)c4)c(-c4ccco4)nc32)cc1 | inconclusive [inhibitor, single point] | 
COc1ccc(C(C(=O)NC2CCCCC2)N(Cc2cccs2)C(=O)Cc2c[nH]c3ccccc23)cc1 (stereo not given) | inconclusive [inhibitor, full curve, poor fit] | 
COc1cccc(CN2CCNC(=O)C2CC(=O)NCCn2nc(C)cc2C)c1OC (stereo not given) | inconclusive [activator, single point] | 
COC(=O)C1=CN(Cc2ccc(OC)cc2)C=C(C(=O)OC)C1c1cccs1 | inconclusive [activator, partial curve] | 
CCCn1c(SCN2C(=O)c3ccccc3C2=O)nc2cc(Cl)ccc2c1=O | inconclusive [inhibitor, single point] | 
Cc1ccccc1Oc1ncnc(N)c1[N+](=O)[O-] |  | inactive: 21.3%
O=S(=O)(NC1CC1)c1ccc(S(=O)(=O)N2CCCC(c3nc(-c4cccnc4)no3)C2)cc1 (stereo not given) |  | inactive: -15.1% [at 46.1 µM]
Cc1ccc(OCC(=O)N2CCCCC2)c(Br)c1 |  | inactive: -2.74% [at 46.1 µM]
Cc1ccc(N(CC(O)COCc2ccco2)S(=O)(=O)c2ccc(C)cc2)cc1 (stereo not given) | inconclusive [inhibitor, single point] | 
Clc1ccc(C(c2ccccc2)N2CCN(c3ccccn3)CC2)cc1 (stereo not given) | inconclusive [activator, partial curve] | 

— PubChem BioAssay AID1461 (National Center for Advancing Translational Sciences (NCATS), 2008)
